Among the data in patent publication US8648074B2, “Substituted octahydropyrrolo[1,2-a]pyrazine sulfonamides as calcium channel blockers” (AbbVie Inc., priority 2011, dated 2014) are IC50 values, retold here.

This test has as its target human Cav2.2 (Homo sapiens, UniProt Q00975). The experiment in a line: In vitro assessment of calcium channel activity using FLIPR (Ca2+ influx in IMR32 cells). It counts as cell-based. Conditions: IMR32 cells endogenously expressing human Cav2.2; Calcium 4 dye, 60 minute pre-incubation, 2 μM nifedipine, depolarized with 80 mM KCl; average of at least two runs unless marked *. The procedure: The IMR32 cells were maintained in MEM media containing 10% (v/v) FBS, 1% (v/v) antibiotic/antimitotic, 1% (v/v) sodium pyruvate and 1% (v/v) MEM NEAA. Following dissociation in 0.05% (v/v) trypsin/EDTA, cells were seeded into black 1×96-well plates (Corning Cellbind) at a density of 1−1.2×10^5 cells/well and incubated in the maintenance media above for 48 hours at 37° C. Immediately prior to performing the assay the media was removed and cells were loaded for 1.5 hours with 1× Calcium 4 dye prepared in HBSS (137 mM NaCl, 5.4 mM KCl, 0.25 mM Na2HPO4, 0.44 mM KH2PO4, 1.3 mM CaCl2, 1 mM MgSO4, 4.2 mM NaHCO3) containing HEPES pH 7.4 at room temperature. After dye loading and a subsequent 60 minute pre-incubation with compounds (full log dilutions from 10 μM to 0.1 nM) in the presence of 1.3 mM CaCl2 and 2 μM nifedipine to block endogenous L-type channels, the external Ca^2+ concentration was increased to 5 mM CaCl2 and the cells concomitantly depolarized with 80 mM KCl to assay channel activity. To determine the IC50 values, the percent inhibition of the compound at each concentration was determined relative to the activity in the absence of inhibitor, and data was fitted using non-linear regression sigmoidal dose response curve analysis with GraphPad Prism®. Unless otherwise indicated (*), the reported values are average values from at least two runs (i.e., n≧2).
In the case of `CC(C)c1ccc(S(=O)(=O)N2CCN3C[C@H](Oc4cnc(C5CC5)cn4)C[C@H]3C2)cc1` [Example 104, (7R,8aS)-7-[(5-cyclopropylpyrazin-2-yl)oxy]-2-[(4-isopropylphenyl)-sulfonyl]octahydropyrrolo[1,2-a]pyrazine], the IC50 (usually the concentration needed to halve the response being measured) worked out at 1660 nM.
The figure for `O=S(=O)(c1cc(C(F)(F)F)ccc1C(F)(F)F)N1CCN2C[C@H](Oc3cnc(C4CC4)cn3)C[C@H]2C1` [Example 138, (7R,8aS)-2-{[2,5-bis(trifluoromethyl)phenyl]sulfonyl}-7-[(5-cyclopropylpyrazin-2-yl)oxy]octahydropyrrolo[1,2-a]pyrazine] is 990 nM; for “(7R,8aS)-2-{[4-chloro-3-(trifluoromethyl)phenyl]sulfonyl}-7-ethoxy-octahydropyrrolo[1,2-a]pyrazine [Example 188]” it is > 30000 nM; for `Cc1ccc(S(=O)(=O)N2CCN3C[C@H](Oc4cnc(C5CC5)cn4)C[C@H]3C2)cc1C` [Example 175, (7R,8aS)-7-[(5-cyclopropylpyrazin-2-yl)oxy]-2-[(3,4-dimethylphenyl)-sulfonyl]octahydropyrrolo[1,2-a]pyrazine] it is 1330 nM.
Consider `O=S(=O)(c1cc(Cl)ccc1F)N1CCN2C[C@H](Oc3cnc(C4CC4)cn3)C[C@H]2C1` [Example 124, (7R,8aS)-2-[(5-chloro-2-fluorophenyl)sulfonyl]-7-[(5-cyclopropylpyrazin-2-yl)oxy]octahydropyrrolo[1,2-a]pyrazine], for which the IC50 worked out at 3050 nM.
In the case of `O=S(=O)(c1cccc(C(F)(F)F)c1)N1CCN2C[C@@H](Oc3ccc(C(F)(F)F)nc3)C[C@H]2C1` [Example 77, (7S,8aS)-2-{[3-(trifluoromethyl)phenyl]sulfonyl}-7-{[6-(trifluoromethyl)-pyridin-3-yl]oxy}octahydropyrrolo[1,2-a]pyrazine], the IC50 was 330 nM.
The value for `N#Cc1cccc(S(=O)(=O)N2CCN3C[C@H](Oc4ccc(C(F)(F)F)nc4)C[C@H]3C2)c1` [Example 229, 3-{[(7R,8aS)-7-{[6-(trifluoromethyl)pyridin-3-yl]oxy}hexahydropyrrolo[1,2-a]pyrazin-2(1H)-yl]sulfonyl}benzonitrile] was 4430 nM; that for `O=S(=O)(c1cc(Cl)ccc1Cl)N1CCN2C[C@H](Oc3cnc(C4CC4)cn3)C[C@H]2C1` [Example 152, (7R,8aS)-7-[(5-cyclopropylpyrazin-2-yl)oxy]-2-[(2,5-dichlorophenyl)-sulfonyl]octahydropyrrolo[1,2-a]pyrazine] was 1150 nM.
The value for `CC(F)(F)c1cccc(S(=O)(=O)N2CCN3C[C@H](Oc4cnc(C5CC5)cn4)C[C@H]3C2)c1` [Example 109, (7R,8aS)-7-[(5-cyclopropylpyrazin-2-yl)oxy]-2-{[3-(1,1-difluoroethyl)-phenyl]sulfonyl}octahydropyrrolo[1,2-a]pyrazine] was 1610 nM.
On to `O=S(=O)(c1ccc2c(c1)CCO2)N1CCN2C[C@H](Oc3cnc(C4CC4)cn3)C[C@H]2C1` [Example 114, (7R,8aS)-7-[(5-cyclopropylpyrazin-2-yl)oxy]-2-(2,3-dihydro-1-benzofuran-5-ylsulfonyl)octahydropyrrolo[1,2-a]pyrazine], for which the IC50 is 6810 nM.
Turning to `O=S(=O)(c1cccc(C(F)(F)F)c1)N1CCN2C[C@H](Oc3ccc(C(F)(F)F)cn3)C[C@H]2C1` [Example 83, (7R,8aS)-2-{[3-(trifluoromethyl)phenyl]sulfonyl}-7-{[5-(trifluoromethyl)-pyridin-2-yl]oxy}octahydropyrrolo[1,2-a]pyrazine], the IC50 was determined as 1220 nM.
`O=S(=O)(c1cccc(C(F)(F)F)n1)N1CCN2C[C@H](Oc3ccc(C(F)(F)F)nc3)C[C@H]2C1` [Example 69, (7R,8aS)-7-{[6-(trifluoromethyl)pyridin-3-yl]oxy}-2-{[6-(trifluoromethyl)-pyridin-2-yl]sulfonyl}octahydropyrrolo[1,2-a]pyrazine]: the IC50 was determined as 460 nM.
Take `O=S(=O)(c1cc(Cl)cc(Cl)c1)N1CCN2C[C@H](Oc3cnc(C4CC4)cn3)C[C@H]2C1` [Example 148, (7R,8aS)-7-[(5-cyclopropylpyrazin-2-yl)oxy]-2-[(3,5-dichlorophenyl)-sulfonyl]octahydropyrrolo[1,2-a]pyrazine]: the IC50 is 1750 nM.
For the molecule `O=S(=O)(c1cccc(C(F)(F)F)c1)N1CCN2C[C@H](Oc3cnc(C4CCC4)cn3)C[C@H]2C1` [Example 101, (7R,8aS)-7-[(5-cyclobutylpyrazin-2-yl)oxy]-2-{[3-(trifluoromethyl)phenyl]-sulfonyl}octahydropyrrolo[1,2-a]pyrazine], the IC50 turned out to be 930 nM.
Regarding `O=C(N[C@H]1C[C@H]2CN(S(=O)(=O)c3ccc(F)cc3C(F)(F)F)CCN2C1)c1ccc(Cl)cc1` [Example 8, 4-chloro-N-[(7S,8aS)-2-{[4-fluoro-2-(trifluoromethyl)phenyl]sulfonyl}-octahydropyrrolo[1,2-a]pyrazin-7-yl]benzamide], the IC50 came out at 3560 nM.
The figure for `C=C(C)c1cnc(O[C@@H]2C[C@H]3CN(S(=O)(=O)c4cccc(C(F)(F)F)c4)CCN3C2)cn1` [Example 115, (7R,8aS)-7-{[5-(prop-1-en-2-yl)pyrazin-2-yl]oxy}-2-{[3-(trifluoromethyl)-phenyl]sulfonyl}octahydropyrrolo[1,2-a]pyrazine] is 1960 nM; for `O=S(=O)(c1cccc(C(F)(F)F)c1)N1CCN2C[C@H](Oc3ccc(Br)nc3)C[C@H]2C1` [Example 87, (7R,8aS)-7-[(6-bromopyridin-3-yl)oxy]-2-{[3-(trifluoromethyl)phenyl]-sulfonyl}octahydropyaolo[1,2-a]pyrazine] it is 1120 nM; for `N#Cc1cccc(S(=O)(=O)N2CCN3C[C@H](Oc4ccc(C(F)(F)F)cn4)C[C@H]3C2)c1` [Example 227, 3-{[(7R,8aS)-7-{[5-(trifluoromethyl)pyridin-2-yl]oxy}hexahydropyrrolo[1,2-a]pyrazin-2(1H)-yl]sulfonyl}benzonitrile] it is 2620 nM.
Turning to `O=C1C(Cc2cccc(C(F)(F)F)c2)C[C@H]2CN(S(=O)(=O)c3cccc(C(F)(F)F)c3)CCN12` (stereo partly drawn) [Example 223, (8aS)-7-[3-(trifluoromethyl)benzyl]-2-{[3-(trifluoromethyl)phenyl]-sulfonyl}hexahydropyrrolo[1,2-a]pyrazin-6(2H)-one], the half-inhibitory concentration (IC50) was 127 nM.
For the molecule `O=C1[C@H](Oc2cnc(C3CC3)cn2)C[C@@H]2CN(S(=O)(=O)c3cccc(C(F)(F)F)c3)CCN12` [Example 210, (7R,8aR)-7-[(5-cyclopropylpyrazin-2-yl)oxy]-2-{[3-(trifluoromethyl)-phenyl]sulfonyl}hexahydropyrrolo[1,2-a]pyrazin-6(2H)-one], the IC50 turned out to be 1660 nM.
The value for `O=S(=O)(c1cccc(C(F)(F)F)c1)N1CCN2C[C@H](Oc3cccc(Br)n3)C[C@H]2C1` [Example 91, (7R,8aS)-7-[(6-bromopyridin-2-yl)oxy]-2-{[3-(trifluoromethyl)phenyl]-sulfonyl}octahydropyaolo[1,2-a]pyrazine] was 2690 nM; that for `O=S(=O)(c1ccc(N2CCOCC2)nc1)N1CCN2C[C@H](Oc3cnc(C4CC4)cn3)C[C@H]2C1` [Example 70, (7R,8aS)-7-[(5-cyclopropylpyrazin-2-yl)oxy]-2-{[6-(morpholin-4-yl)pyridin-3-yl]sulfonyl}octahydropyrrolo[1,2-a]pyrazine] was 6970 nM; that for `COc1ccc(S(=O)(=O)N2CCN3C[C@H](Oc4cnc(C5CC5)cn4)C[C@H]3C2)cc1C` [Example 170, (7R,8aS)-7-[(5-cyclopropylpyrazin-2-yl)oxy]-2-[(4-methoxy-3-methylphenyl)sulfonyl]octahydropyrrolo[1,2-a]pyrazine] was 2640 nM.
The value for `O=C(N[C@H]1C[C@H]2CN(S(=O)(=O)c3ccc(C(F)(F)F)cc3)CCN2C1)c1ccc(Cl)cc1` [Example 6, 4-chloro-N-[(7S,8aS)-2-{[4-(trifluoromethyl)phenyl]sulfonyl}octahydropyrrolo[1,2-a]pyrazin-7-yl]benzamide] was 1600 nM.
The figure for `CC(C)c1cnc(O[C@@H]2C[C@H]3CN(S(=O)(=O)c4cccc(C(C)(C)C)c4)CCN3C2)cn1` [Example 117, (7R,8aS)-2-[(3-tert-butylphenyl)sulfonyl]-7-[(5-isopropylpyrazin-2-yl)-oxy]octahydropyrrolo[1,2-a]pyrazine] is 470 nM; for `CC(C)(C)c1ccc(S(=O)(=O)N2CCN3C[C@H](Oc4cnc(C5CC5)cn4)C[C@H]3C2)cc1` [Example 56, (7R,8aS)-2-[(4-tert-butylphenyl)sulfonyl]-7-[(5-cyclopropylpyrazin-2-yl)-oxy]octahydropyrrolo[1,2-a]pyrazine] it is 2900 nM.
With `O=S(=O)(c1ccc2ccccc2c1)N1CCN2C[C@H](Oc3cnc(C4CC4)cn3)C[C@H]2C1` [Example 156, (7R,8aS)-7-[(5-cyclopropylpyrazin-2-yl)oxy]-2-(2-naphthylsulfonyl)-octahydropyrrolo[1,2-a]pyrazine], the IC50 is 1910 nM.
`O=C(N[C@H]1C[C@H]2CN(S(=O)(=O)c3cc(C(F)(F)F)ccc3Cl)CCN2C1)c1ccc(F)cc1` [Example 4, N-[(7S,8aS)-2-{[2-chloro-5-(trifluoromethyl)phenyl]sulfonyl}octahydropyrrolo[1,2-a]pyrazin-7-yl]-4-fluorobenzamide]: the IC50 came out at 3830 nM.
